The campaign covered roughly 310,000 compounds. About 14,000 (4.5%) showed an effect of 50% or more. The effect is printed as a negative number. Some of the results follow.
Target: human ether-à-go-go-related gene (hERG) potassium channel (human, UniProt Q12809)
Experiment: primary screen, population patch clamp on CHO cells stably expressing hERG
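Further: peak tail current of the secondary pulse compared with the same well before compound.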

Sequence of human ether-à-go-go-related gene (hERG) potassium channel (Q12809 whole entry, looked up): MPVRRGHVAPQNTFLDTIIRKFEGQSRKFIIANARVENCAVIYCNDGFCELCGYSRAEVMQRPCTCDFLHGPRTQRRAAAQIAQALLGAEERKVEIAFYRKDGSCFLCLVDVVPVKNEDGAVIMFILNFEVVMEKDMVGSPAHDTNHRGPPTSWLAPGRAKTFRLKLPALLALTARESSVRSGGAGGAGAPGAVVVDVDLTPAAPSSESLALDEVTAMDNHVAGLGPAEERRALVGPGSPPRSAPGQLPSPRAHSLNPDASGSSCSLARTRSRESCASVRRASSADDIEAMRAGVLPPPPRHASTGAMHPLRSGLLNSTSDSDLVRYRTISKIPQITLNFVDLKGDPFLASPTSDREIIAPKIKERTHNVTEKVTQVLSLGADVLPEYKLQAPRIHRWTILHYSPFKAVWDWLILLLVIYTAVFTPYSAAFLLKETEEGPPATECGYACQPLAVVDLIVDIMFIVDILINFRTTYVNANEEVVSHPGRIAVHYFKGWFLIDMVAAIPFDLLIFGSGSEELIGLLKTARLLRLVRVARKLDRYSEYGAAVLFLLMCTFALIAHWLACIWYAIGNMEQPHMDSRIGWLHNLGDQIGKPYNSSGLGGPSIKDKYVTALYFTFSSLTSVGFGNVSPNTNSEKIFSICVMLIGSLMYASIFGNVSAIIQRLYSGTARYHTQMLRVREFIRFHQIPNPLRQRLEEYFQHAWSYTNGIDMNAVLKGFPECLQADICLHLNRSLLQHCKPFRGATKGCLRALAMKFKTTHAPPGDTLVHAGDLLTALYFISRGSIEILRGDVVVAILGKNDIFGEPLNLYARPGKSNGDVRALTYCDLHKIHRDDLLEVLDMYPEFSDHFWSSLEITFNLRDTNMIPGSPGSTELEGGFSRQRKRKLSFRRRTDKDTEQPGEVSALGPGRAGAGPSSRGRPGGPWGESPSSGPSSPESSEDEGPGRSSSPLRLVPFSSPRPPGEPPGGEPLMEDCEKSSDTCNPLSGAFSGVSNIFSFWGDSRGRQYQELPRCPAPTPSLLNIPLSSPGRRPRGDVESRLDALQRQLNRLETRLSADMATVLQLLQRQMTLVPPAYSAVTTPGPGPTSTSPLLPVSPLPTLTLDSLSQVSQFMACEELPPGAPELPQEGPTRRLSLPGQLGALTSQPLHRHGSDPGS

Row | Compound | hERG current change (%, negative = inhibition) at 10uM
1 | Cc1ccc(NC(=O)c2nn(C34CC5CC(CC(C5)C3)C4)cc2[N+](=O)[O-])cc1 | -5.38%
2 | CCOc1ccccc1C(=O)NC1CCN(Cc2ccccc2)CC1 | -46.6%
3 | Cc1ccc(C)c(-n2c(SCC(=O)N3CCC(C(=O)O)CC3)nnc2-c2cccc(Cl)c2)c1 | 35.2%
4 | N#Cc1ccc(-c2csc(NC(=O)/C=C/c3cccs3)n2)cc1 | 3.52%
5 | Cc1c(CN2CCN(CC(C)(C)C)C(CCO)C2)[nH]c2ccccc12 (stereo not shown) | 12.2%
6 | CCOC(=O)c1c(NC(=O)CSc2nnc(-c3ccccc3)n2CC)sc(C(C)=O)c1C | -31%
7 | CCOC(=O)Nc1oc2ccccc2c(=O)c1CN1CCOCC1 | 7.12%
8 | CCOc1ccc(S(=O)(=O)Nc2ccccc2SC)c2cccnc12 | -7.98%
9 | O=c1nc(-c2ccccc2)nc(-c2ccccc2)[nH]1 | 10%
10 | O=C1CC(c2ccccc2Br)c2cc3c(cc2N1)CCC3 (stereo not shown) | 3.46%
11 | COC(=O)c1cc(C(=O)NC(C)C2CC3CCC2C3)cc([N+](=O)[O-])c1 (stereo not shown) | -39.9%
12 | Cc1nc(-c2ccc(NC(=O)C3CC3)cc2)cs1 | 20.8%
13 | O=C(Nc1nccs1)c1cc(Cl)nc2ccccc12 | 11.4%
14 | CCn1c(=O)c2cc(C(=O)N(C)c3ccccc3F)sc2c2ccccc21 | -14.1%
15 | COc1ccccc1C(C)NCC(=O)NCc1ccc(C)cc1 (stereo not shown) | -16.1%
16 | CC(=O)N1c2ccc(S(=O)(=O)N3CCC(C(=O)NC4CCC(C)CC4)CC3)cc2CC1C (stereo not shown) | 17.3%
17 | CC(C)Oc1ccc(CCN=C(N)N=C(N)N)cc1Cl.Cl | 18.9%
18 | O=C(CCN1CCCCC1c1cccnc1)NCc1ccccc1 (stereo not shown) | 2.82%
19 | NC(=O)CSc1nnc2ccc(-c3ccco3)nn12 | 7.7%
20 | Cc1ccc(NC(=O)Nc2cccnc2)cc1Cl | -13%
21 | CC(C)(C)C(=O)Nc1nnc(SCc2ccc(F)cc2)s1 | -24.2%
22 | CCC(=O)N1CCN(c2ccccc2NC(=O)c2ccc([N+](=O)[O-])o2)CC1 | -69%

Row | Compound | hERG current change (%, negative = inhibition) at 10uM
23 | CC(C)c1nc2sc3c(c2c(=O)o1)CCCC3 | 5.59%
24 | COc1ccc(CN2C(=O)CS/C2=N/N=C/c2ccccc2)cc1 | 14%
25 | Cl.O=C(CN1CCN(C2CCCCC2)CC1)Nc1ccccc1-c1ccccc1 | -70.1%
26 | O=C(COC(=O)C1CC1)Nc1ccc2[nH]c(=O)[nH]c2c1 | 14%
27 | CCn1c(N)c(C(=O)NCC2CCCO2)sc1=S (stereo not shown) | 11.8%
28 | COC(=O)CCC(=O)Nc1ccccc1C(=O)Nc1ccccc1 | 9.16%
29 | CCOC(=O)c1cccc(NC(=O)CCCn2c(=O)c3cccn3c3cccnc32)c1 | 6.83%
30 | COCC(=O)Nc1nnc(-c2cccs2)s1 | 9.33%
31 | CCN1CCN(CC#CCOc2ccccc2OC)CC1.O=C(O)C(=O)O | -38.5%
32 | Nc1cc(-c2nc3ncccc3o2)ccc1Cl | -1.78%
33 | Cc1cc2c(cc1S(=O)(=O)CCC(=O)N1CC(C)CC(C)C1)OCC(=O)N2 (stereo not shown) | -29.4%
34 | CSCc1cccc(C(=O)OC(C)C(=O)Nc2c(C)n(C)n(-c3ccccc3)c2=O)c1 (stereo not shown) | -8%
35 | O=C(CNS(=O)(=O)c1ccccc1)OCC(=O)c1c[nH]c2ccccc12 | -2.37%
36 | COc1ccccc1C(=O)Nc1ccc(S(=O)(=O)Nc2cc(C)on2)cc1 | 4.07%
37 | C/C(CC(=O)Nc1cc(Cl)ccc1C)=N\NC(=O)C(=O)N1CCCC1 | 16.4%
38 | Cc1ccc(NC(=O)CSCC(=O)N(C)CC(=O)Nc2cccc3ccccc23)cc1 | -19%
39 | COc1ccc(-c2cc3ccc(O)cc3oc2=O)cc1OC | 12.6%
40 | COc1cccc(OCC(O)CNC(C)c2ccccc2)c1.Cl (stereo not shown) | 2.14%
41 | CCN(Cc1ccc(OC)c(F)c1)C(C)C(=O)Nc1ccc(S(=O)(=O)N2CCCC2)cc1 (stereo not shown) | -8.74%
42 | c1cc2nnnn2nc1N1CCCCCC1 | -29.9%
43 | C#CC[N+]1(CC#Cc2ccc(C#CC[N+]3(CC#C)CCOCC3)cc2)CCOCC1.[Br-] | 3.46%
44 | CC(C)C(=O)Nc1ccc2oc(-c3cc(F)c(F)cc3Cl)nc2c1 | -11.5%

Row | Compound | hERG current change (%, negative = inhibition) at 10uM
45 | NC(=O)SC/C(=N\S(=O)(=O)c1ccccc1)Nc1ccccc1 | 8.73%
46 | Cc1ccc(SCC(=O)NCCCc2ccccc2)cc1 | 8.1%
47 | CCCOc1ccc(C(=O)Nc2ccc(S(=O)(=O)Nc3cc(C)nc(C)n3)cc2)cc1 | 8.97%
48 | C#CCOCCOCCOCCNc1nc(N2CCN(C(=O)[C@H](CCCCN)n3cc([C@@H](N)C(C)CC)nn3)CC2)nc(N2CCN(C(=O)[C@H](Cc3cc4ccccc4[nH]3)n3cc([C@@H](N)CC(C)C)nn3)CC2)n1.Cl (stereo partly shown) | 7.05%
49 | COc1cc(C=O)ccc1Oc1nnnn1-c1ccc(C(N)=O)cc1 | -7.51%
50 | Cc1ccc(NC(=O)c2cnn(-c3ccccc3)c2NC(=O)c2ccco2)cc1C | 0.985%
51 | CCOc1ccc(Cn2c3ccc(OC)cc3c3nc4ccccc4nc32)cc1OC | 10.8%
52 | COc1ccccc1CNC(=O)C1CCN(S(=O)(=O)c2ccc3c(c2)CC(C)N3C(C)=O)CC1 (stereo not shown) | 13%
53 | COc1cccc(NC(=O)N2CCN(c3cccc(C)c3C)CC2)c1 | -17.5%
54 | COc1ccccc1OCC(=O)NNC(=O)Nc1ccccc1 | 18.2%
55 | Cn1ncc2c(Nc3ccc(O)cc3)nc(Cl)nc21 | 5.53%
56 | CC1CCC(NC(=O)CN2C(=O)c3cccnc3Oc3ccc(Cl)cc32)CC1 (stereo not shown) | -6.57%
57 | O=C(COc1ccc2c3c(c(=O)oc2c1)CCCC3)NCC(O)c1ccccc1 (stereo not shown) | -2.73%
58 | CN(C)c1ccc(NS(=O)(=O)c2ccc(-c3csnn3)cc2)cc1 | 13.1%
59 | COc1cccc(C(=O)N2CCCC(c3nc(-c4cccs4)no3)C2)c1 (stereo not shown) | -12.9%
60 | CC(=O)Nc1cccc(NC(=O)c2ccc3c(c2)CCN3S(=O)(=O)c2ccccc2)c1 | 18.4%
61 | CC(=O)CC(C)=NCCN=C(C)CC(C)=O | -4.29%
62 | CC(C)Oc1cc(-n2c(=S)[nH]c3ccccc3c2=O)c(Cl)cc1Cl | 5.31%
63 | O=C1c2ccccc2C(=O)N1CCCc1c[nH]c2ccc(Cl)cc12 | -19.3%
64 | CCCCCn1c(=O)c(C(=O)NCc2ccccn2)c(O)c2ccccc21 | -5.21%
65 | Cc1c(Nc2ncnc3c2cnn3-c2ccccc2)c(=O)n(-c2ccccc2)n1C | 6.92%
66 | CCCCOC(C)n1cc(F)c(=O)[nH]c1=O (stereo not shown) | 18.8%

Row | Compound | hERG current change (%, negative = inhibition) at 10uM
67 | C(=N\n1cnnc1)/c1ccc(-c2ccccc2)cc1 | -13.1%
68 | O=[N+]([O-])c1cc(CN2CCCC2)c2cccnc2c1O | 0.42%
69 | COc1cccc(NC(=O)CNC(=O)c2cccs2)c1 | 5.78%
70 | Clc1ccc(-c2noc(/C=C/c3ccccc3)n2)cc1 | 18.2%
71 | CC(/C=C/c1ccccc1)=N\NC(=O)CCc1ccccc1 | -0.539%
72 | Cc1ccccc1C(=O)NNC(=O)c1cccc([N+](=O)[O-])c1 | -9.18%
73 | Cc1cccc(N2CCN(C(=O)CC(NC(=O)c3ccccc3)c3ccccc3)CC2C)c1 (stereo not shown) | -47.1%
74 | COc1cc(/C=N/NC(=O)Cc2cccs2)c([N+](=O)[O-])cc1OC | -3.76%
75 | Cc1nn(S(=O)(=O)N(C)C)c(C)c1CN1C(=O)c2ccccc2C1=O | -14.3%
76 | CC(C)=CCCC(C)CN(C)CCc1ccccn1 (stereo not shown) | -65.4%
77 | COc1ccc(OCCCC(=O)OC(C)C(=O)Nc2ccc(C)cc2)cc1 (stereo not shown) | -26.6%
78 | Cc1[nH]c2ccccc2c1C(=O)C(=O)NC1CC1 | 24.8%
79 | COc1cccc(N2C(=O)/C(=C\c3cccs3)NC2=S)c1 | 17.5%
80 | COc1ccccc1NCC(O)Cn1c2ccccc2c2ccccc21 (stereo not shown) | -11.8%
81 | Cc1ccc(-n2c(C)nc3oc4ccccc4c(=O)c3c2=O)cc1 | 4.99%
82 | N#Cc1cnc(SCC(=O)NNC(=O)COc2cccc3ccccc23)nc1N | 4.36%
83 | Cc1ccc(C2=NS(=O)(=O)N(C)C(C(=O)Nc3ccc4c(c3)OCO4)=C2)cc1 | -2.94%
84 | CCOC(=O)C1CCCN(S(=O)(=O)c2cc(OCC(=O)NC3CCCCC3)c(C)cc2Cl)C1 (stereo not shown) | -10.3%
85 | Cc1cccc(CC2S/C(=N/c3cccc(C)n3)NC2=O)c1 (stereo not shown) | -2.32%
86 | COc1ccc(OC)c(-c2csc(NC(=O)C3=COCCO3)n2)c1 | 4.73%
87 | Cc1cccc(N(CC(=O)NC(C)(C)C)C(=O)CNC(=O)c2cccs2)c1 | -7.29%
88 | CCCCN(C(=O)C1=COCCO1)c1c(N)n(CCCC)c(=O)[nH]c1=O | 9.21%
